Results from paper PMC9911399, “Two distinct binding modes provide the RNA-binding protein RbFox with extraordinary sequence specificity”.
Residue numbers refer to the chain shown, from its start. Some of the results follow.

T1: RBFOX1 RRM RbFoxmut (Fox-RRM*) (Homo sapiens, UniProt Q9NWB1 109-208, R118D;E147R;N151S;E152T)
T1 sequence: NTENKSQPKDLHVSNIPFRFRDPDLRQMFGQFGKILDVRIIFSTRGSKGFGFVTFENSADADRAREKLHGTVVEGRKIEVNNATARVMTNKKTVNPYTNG

B1: CCUAGAG (DNA:RNA)
RNA: GGGAGACCGGAAUUCAGAUUGUCCCCUAGAGUUAAAUCCCGUCGUAGCCACCA
DNA 1: CAATCTGAATTCCGGTCTCCC
DNA 2: TGGTGGCTACGACGGGATT
B2: AGCAUGC (DNA:RNA)
RNA: B1 RNA with C25A, C26G, U27C, G29U, A30G, G31C
DNA 1: CAATCTGAATTCCGGTCTCCC
DNA 2: TGGTGGCTACGACGGGATT
B3: CAACUUG (DNA:RNA)
RNA: B1 RNA with C26A, U27A, A28C, G29U, A30U
DNA 1: CAATCTGAATTCCGGTCTCCC
DNA 2: TGGTGGCTACGACGGGATT
B4: GGUCAAG (DNA:RNA)
RNA: B1 RNA with C25G, C26G, A28C, G29A
DNA 1: CAATCTGAATTCCGGTCTCCC
DNA 2: TGGTGGCTACGACGGGATT
B5: AAGCCGA (DNA:RNA)
RNA: GGGAGACCGGAAUUCAGAUUGUCCAAGCCGAUUAAAUCCCGUCGUAGCCACCA
DNA 1: CAATCTGAATTCCGGTCTCCC
DNA 2: TGGTGGCTACGACGGGATT
B6: CUUUGUA (DNA:RNA)
RNA: B1 RNA with C26U, A28U, A30U, G31A
DNA 1: CAATCTGAATTCCGGTCTCCC
DNA 2: TGGTGGCTACGACGGGATT
B7: AUGUGUU (DNA:RNA)
RNA: B5 RNA with A26U, C28U, C29G, G30U, A31U
DNA 1: CAATCTGAATTCCGGTCTCCC
DNA 2: TGGTGGCTACGACGGGATT
B8: GACGCUA (DNA:RNA)
RNA: B5 RNA with A25G, G27C, C28G, G30U
DNA 1: CAATCTGAATTCCGGTCTCCC
DNA 2: TGGTGGCTACGACGGGATT
B9: AGUUAUG (DNA:RNA)
RNA: B1 RNA with C25A, C26G, A28U, G29A, A30U
DNA 1: CAATCTGAATTCCGGTCTCCC
DNA 2: TGGTGGCTACGACGGGATT
B10: GUAGAUC (DNA:RNA)
RNA: GGGAGACCGGAAUUCAGAUUGUCCGUAGAUCUUAAAUCCCGUCGUAGCCACCA
DNA 1: CAATCTGAATTCCGGTCTCCC
DNA 2: TGGTGGCTACGACGGGATT
B11: CGGUGCA (DNA:RNA)
RNA: B5 RNA with A25C, A26G, C28U, C29G, G30C
DNA 1: CAATCTGAATTCCGGTCTCCC
DNA 2: TGGTGGCTACGACGGGATT
B12: UCCCAGC (DNA:RNA)
RNA: B5 RNA with A25U, A26C, G27C, C29A, A31C
DNA 1: CAATCTGAATTCCGGTCTCCC
DNA 2: TGGTGGCTACGACGGGATT
B13: AGCCCCC (DNA:RNA)
RNA: B5 RNA with A26G, G27C, G30C, A31C
DNA 1: CAATCTGAATTCCGGTCTCCC
DNA 2: TGGTGGCTACGACGGGATT
B14: CUGAUAG (DNA:RNA)
RNA: B1 RNA with C26U, U27G, G29U
DNA 1: CAATCTGAATTCCGGTCTCCC
DNA 2: TGGTGGCTACGACGGGATT
B15: GCCCCAC (DNA:RNA)
RNA: B5 RNA with A25G, A26C, G27C, G30A, A31C
DNA 1: CAATCTGAATTCCGGTCTCCC
DNA 2: TGGTGGCTACGACGGGATT
B16: AAACUGC (DNA:RNA)
RNA: B5 RNA with G27A, C29U, A31C
DNA 1: CAATCTGAATTCCGGTCTCCC
DNA 2: TGGTGGCTACGACGGGATT
B17: AUUACUA (DNA:RNA)
RNA: B5 RNA with A26U, G27U, C28A, G30U
DNA 1: CAATCTGAATTCCGGTCTCCC
DNA 2: TGGTGGCTACGACGGGATT
B18: CAUUUAU (DNA:RNA)
RNA: B1 RNA with C26A, A28U, G29U, G31U
DNA 1: CAATCTGAATTCCGGTCTCCC
DNA 2: TGGTGGCTACGACGGGATT
B19: ACAGCGU (DNA:RNA)
RNA: B5 RNA with A26C, G27A, C28G, A31U
DNA 1: CAATCTGAATTCCGGTCTCCC
DNA 2: TGGTGGCTACGACGGGATT
B20: UCACGUA (DNA:RNA)
RNA: B5 RNA with A25U, A26C, G27A, C29G, G30U
DNA 1: CAATCTGAATTCCGGTCTCCC
DNA 2: TGGTGGCTACGACGGGATT
B21: CACUGUU (DNA:RNA)
RNA: B1 RNA with C26A, U27C, A28U, A30U, G31U
DNA 1: CAATCTGAATTCCGGTCTCCC
DNA 2: TGGTGGCTACGACGGGATT
B22: UCAGUCG (DNA:RNA)
RNA: B1 RNA with C25U, U27A, A28G, G29U, A30C
DNA 1: CAATCTGAATTCCGGTCTCCC
DNA 2: TGGTGGCTACGACGGGATT
B23: UAGAGCU (DNA:RNA)
RNA: B5 RNA with A25U, C28A, C29G, G30C, A31U
DNA 1: CAATCTGAATTCCGGTCTCCC
DNA 2: TGGTGGCTACGACGGGATT
B24: CUGGGGU (DNA:RNA)
RNA: B5 RNA with A25C, A26U, C28G, C29G, A31U
DNA 1: CAATCTGAATTCCGGTCTCCC
DNA 2: TGGTGGCTACGACGGGATT
B25: AAAUGCG (DNA:RNA)
RNA: B5 RNA with G27A, C28U, C29G, G30C, A31G
DNA 1: CAATCTGAATTCCGGTCTCCC
DNA 2: TGGTGGCTACGACGGGATT
B26: UCAAAGC (DNA:RNA)
RNA: B10 RNA with G25U, U26C, G28A, U30G
DNA 1: CAATCTGAATTCCGGTCTCCC
DNA 2: TGGTGGCTACGACGGGATT
B27: CCCCGCC (DNA:RNA)
RNA: B1 RNA with U27C, A28C, A30C, G31C
DNA 1: CAATCTGAATTCCGGTCTCCC
DNA 2: TGGTGGCTACGACGGGATT
B28: CUAACGU (DNA:RNA)
RNA: B5 RNA with A25C, A26U, G27A, C28A, A31U
DNA 1: CAATCTGAATTCCGGTCTCCC
DNA 2: TGGTGGCTACGACGGGATT
B29: UAAACCA (DNA:RNA)
RNA: B5 RNA with A25U, G27A, C28A, G30C
DNA 1: CAATCTGAATTCCGGTCTCCC
DNA 2: TGGTGGCTACGACGGGATT
B30: AAACGAU (DNA:RNA)
RNA: B5 RNA with G27A, C29G, G30A, A31U
DNA 1: CAATCTGAATTCCGGTCTCCC
DNA 2: TGGTGGCTACGACGGGATT
B31: AUCUAUG (DNA:RNA)
RNA: B10 RNA with G25A, A27C, G28U, C31G
DNA 1: CAATCTGAATTCCGGTCTCCC
DNA 2: TGGTGGCTACGACGGGATT

biological target: T1, RBFOX1 RRM RbFoxmut (Fox-RRM*); test: EMSA; HiTS-Eq, 1 nM pool, 10 min; buffer printed only for the single-RNA assays: 10 mM Tris pH 7.5, 150 mM NaCl, 3.4 mM EDTA, 0.001% NP-40, 30 C; conditions: tags: His6 N-terminal (pET28a); label: 5' 32P
How it was run: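 A pool of RNA with 7 randomized nucleotides, 5′-radiolabelled and with DNA-annealed flanks, was equilibrated at 1 nM for 10 min in 50 µL with purified RbFox RRM, wild type or mutant, across increasing protein concentrations. Free RNA was separated by 8% native PAGE, excised, reverse-transcribed, barcoded by PCR and sequenced. Relative association constants were obtained from read-count changes of each RNA species versus the control reaction and normalised to the cognate motif.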

For B1, which binding signal is on record?
Its binding signal is 0.109 KA relative to UGCAUGU.

With B2 as the binder, how does the binding signal read?
Its binding signal is 0.495 KA relative to UGCAUGU.

With B3 as the binder, how does the binding signal read?
The binding signal was 0.11 KA relative to UGCAUGU.

With B4 as the binder, how does the binding signal read?
The binding signal was 0.0789 KA relative to UGCAUGU.

B5 was tested. Which binding signal did it give?
Its binding signal is 0.107 KA relative to UGCAUGU.

Which binding signal does the source give for B6 here?
Its binding signal is 0.203 KA relative to UGCAUGU.

How did the binding signal turn out when B7 was run?
The binding signal was 0.174 KA relative to UGCAUGU.

For B8, which binding signal is on record?
Its binding signal is 0.104 KA relative to UGCAUGU.

Which binding signal does the source give for B9 here?
The binding signal was 0.28 KA relative to UGCAUGU.

Which binding signal does the source give for B10 here?
Its binding signal is 0.102 KA relative to UGCAUGU.

How did the binding signal turn out when B11 was run?
Its binding signal is 0.191 KA relative to UGCAUGU.

How did the binding signal turn out when B12 was run?
The binding signal was 0.1 KA relative to UGCAUGU.

How did the binding signal turn out when B13 was run?
The binding signal was 0.0366 KA relative to UGCAUGU.

With B14 as the binder, how does the binding signal read?
The binding signal was 0.0824 KA relative to UGCAUGU.

How did the binding signal turn out when B15 was run?
Its binding signal is 0.094 KA relative to UGCAUGU.

Which binding signal does the source give for B16 here?
Its binding signal is 0.0585 KA relative to UGCAUGU.

How did the binding signal turn out when B17 was run?
The binding signal was 0.129 KA relative to UGCAUGU.

With B18 as the binder, how does the binding signal read?
The binding signal was 0.133 KA relative to UGCAUGU.

With B19 as the binder, how does the binding signal read?
The binding signal was 0.138 KA relative to UGCAUGU.

For B20, which binding signal is on record?
The binding signal was 0.165 KA relative to UGCAUGU.

B21 was tested. Which binding signal did it give?
Its binding signal is 0.106 KA relative to UGCAUGU.

How did the binding signal turn out when B22 was run?
Its binding signal is 0.09 KA relative to UGCAUGU.

For B23, which binding signal is on record?
The binding signal was 0.0836 KA relative to UGCAUGU.

With B24 as the binder, how does the binding signal read?
Its binding signal is 0.12 KA relative to UGCAUGU.

How did the binding signal turn out when B25 was run?
Its binding signal is 0.104 KA relative to UGCAUGU.

B26 was tested. Which binding signal did it give?
Its binding signal is 0.0697 KA relative to UGCAUGU.

How did the binding signal turn out when B27 was run?
Its binding signal is 0.076 KA relative to UGCAUGU.

B28 was tested. Which binding signal did it give?
Its binding signal is 0.0712 KA relative to UGCAUGU.

B29 was tested. Which binding signal did it give?
The binding signal was 0.091 KA relative to UGCAUGU.

Which binding signal does the source give for B30 here?
The binding signal was 0.0548 KA relative to UGCAUGU.

Which binding signal does the source give for B31 here?
Its binding signal is 0.153 KA relative to UGCAUGU.
